Data: a collection of fitness landscapes (doi:10.1016/j.celrep.2020.107928)
In all, about 81,000 sequences were measured (“one-hybrid fitness for binding parS DNA”: median about -0.17, highest 2% from about 0.51 on). Some of the results follow.

B1: Caulobacter ParB omega fusion; a variant is named by its letters at X, in order, B8GW30 (parent)
chain: MESVVVGEPGMSEGRRGLGRGLSALLGEVDAAPAQAPGEQLGGSREAPIEILQRNPDQPRRTFREEDLEDLSNSIREKGVLQPILVRPSPDTAGEYQIVAGERAWRAAQRAGLKTVPIMVRELDDLAVLEIGIIENVQRADLNVLEEALSYKVLMEKFERTQENIAQTIGKSXSHVANXMRLLXLPDEVQSYLVSGELTAXHARAIAAAADPVALAKQIIEGGLSVRETEALARKAPNLSAGKSKGGRPPRVKDTDTQALESDLSSVLGLDVSIDHRGSTGTLTITYATLEQLDDLCNRLTRGI

Variants of: B1
Experiment: one-hybrid fitness for binding parS DNA (scaled: cognate 1, non-cognate 0); higher = stronger binding
Details: with parS DNA site
How it was run: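 Values were rescaled so that cognate is 1 and non-cognate is 0. Each is a fitness, the log change in a variant's read ratio to wild type from Illumina reads of plasmids before and after selection, with three replicate libraries pooled and variants under 10 reads dropped. Selection of the Caulobacter ParB libraries, four specificity codons randomised, used E. coli USO with a HIS3 reporter, site 19 bp from the promoter, on M9-minus-histidine with 0.1 mM IPTG and 5 mM 3-AT for 48 hours at 37°C.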

one-hybrid fitness for binding parS DNA, ≤ 0.2:
PHSS
PARE
ECYR
TMFR
WLAW
GVNW
AETG
IQPH
KYCL
WVGN
HTVD
TVYS
RYPK
TILT
HWYS
AFVG
QWSY
KWHS
ADKE
TIIA
IKPF
AKLR
CTPF
GKIS
HCYS
TVCG
IIYS
MFVC
NLSH
TRAW
YLCT
NWRK
MFTH
PTFS
AFKS
WGSC
KVLT
EPNT
KRHH
KCKF
QVGY
HTTD
AQRW
GCVW
MAHS
ADCG
ETIS
SLAA
MAPC
GTQG
HYFC
YQYK
GVIF
TQQS
MYCG
TKLL
WLPG
FTTL
NRNS
QAWV
IKKS
DNYE
LHGM
MPMF
RMCP
CMWS
TMLT
QKQR
RICR
EINN
IKAE
MKYV
SVIS
THNA
QQPM
KMGV
DEIR
GGSE
VNMS
TKTN
VRMY
PMCM
WTMK
LKEE
SGEY
RLNP
TCHY
RVPV
DFSV
LNNW
CLMG
QVHF
GSMC
ITFG
QFSC
IEPV
LLPQ
NHAA
PKHS
EQTR
YNSE
HMPI
CSSE
HYVC
LDNG
DMVL
KELI
WIKR
VRND
IRCT
GMKG
NTRW
RHCI
YPTT
FCPS
PKNG
EPKL
IIPN
IKES
LLPG
WCRA
IRQM
GECS
NGRA
AQDC
ACKD
ILTF
IWNT
METS
QKDY
ACYT
IEIV
SHYF
RSTR
PSVI
TEDR
DTND
GLPS
RWHV
ILDT
ECSC
HFTD
CQAS
VSYM
IYNY
LRQN
YWGS
PTHL
VRFS
HGPW
HVRL
TPSS
NHRD
FGPV
KRVP
KLGI
RDMG
CYLR
NYDF
NNAS
TLNM
FMAR
TARP
DDAG
MVCS
YSWR
CSRC
PQLC
CPCS
QWDS
TAYC
LPRC
CFMT
IDDF
ATMR
CSIA
KKER
GIPF
ETNR
TAKY
QYNA
SFSM
NYCG
HNKD
HYYR

one-hybrid fitness for binding parS DNA, 0.971:
RACG

one-hybrid fitness for binding parS DNA, 0.968:
RTAS

one-hybrid fitness for binding parS DNA, 0.782:
RAIC

one-hybrid fitness for binding parS DNA, 0.214:
RITH

one-hybrid fitness for binding parS DNA, 0.997:
RTGG

one-hybrid fitness for binding parS DNA, 0.456:
RGLT

one-hybrid fitness for binding parS DNA, 0.398:
RQFY

one-hybrid fitness for binding parS DNA, 0.609:
RACA

one-hybrid fitness for binding parS DNA, 0.425:
RWNA

one-hybrid fitness for binding parS DNA, 0.27:
RLCF
